This note sets out measurements from the RNAGym collection of RNA variant scans (doi:10.7554/elife.90254).

Read counts are not given, so values of variants with three or more changes are uncertain.

The labels stand for the following.
B1: LINE1-mini (parent)
chain: GGCAGAGCUCAACACAGCGUGGCAAAGUGGCUGUGGCUAGACUGCC

Variants of B1 are the subject of this data set. The data set can be described thus: self-cleavage, relative activity (ratio to wild type); higher = more cleavage; in vitro, sequencing; the parent is a self-cleaving ribozyme.
For GGCAGAGCUCAACAGAGCAUGGCAAAGUGGCUGUGGUUAGACUACC, the self-cleavage amounted to 0.
For the variant GGCAUAGCUACACACAUCGUGGCAAAGUGGCUGUGGCUAGACUGCC, the self-cleavage turned out to be 0.02.
To GGCACAGCUCAACAGAGUGUGGCAAAGUGGCUGAGGCUAGACUGCG belongs 0.
With GGAAAAGCUCAACACACCGUGGCAAAGUGGCUGUGGCUAGACUCCC the figure was 0.05.
With GACAGAGUUCAACAUAGCCUGGCACAGUGGCUGUGGAUAGACUGCC the figure was 0.24; with GGCAGAGCUCUACACAACGUGGCAAAGUGGAUGUGGCUAGAUUGCC, 0.02.
Regarding GGCAGAGCUCGAAACAGCGUGGCAAAGUGGCUGUGACUAGACUGCC, the self-cleavage was determined as 0.02.
To GGCAGAGCUACACACAGCGUGGCAAAGUGGCAGUGGCUAGUCUGCC belongs 0; to GGCAGAGUUCAACAGAGCGUAGAAAAGUGGCAGUGACUAGAAUGCC, 0.44; to GGCAGAGCCAAACACAGCGUGGCAAAGUGGCUGUGGCUAUACUGCC, 0.08.
To GGCAGAGCUCGACACAGCGUGGCCAAGUGGCAGUGGCUAGACUUCC belongs 0.03.
To UGCAGAGCUCAACACAUCGUGGCAAUGUGGCUGUCGCUAGGCUGUC belongs 0.01; to GGCAGAGCUCAUCACAGCGCAGCAAAGUGGCCGUGGCUAGACUGCC, 0.27; to GGCAGAGCUCAACACAGCGUAGCAAAGUGGUUGUGUCUAGACUGCC, 0.52.
On to GGCAAAGCUCAACACAGCGCGGCAAAGUGCCUGUGGUUAGACUGCC, for which the self-cleavage is 0.04.
To GGCAUAGCUCAACACAGCGUGGCAAAGUGGCUGUGGCAAGUCUGCC belongs 0.08; to GGCAGAGCUCAACACAGCGUGGCAAAGAGGAUGUGGCGAGACUGCC, 0.03; to GGCAGAGCUCAACACAGAGUCGCAAAGUGGCUGUGUCUGGACUGCC, 0.03.
As for GGCAGAGCUCAACACAGCGUGGCAAAGUGGAUGGGGCUGGACUGAU, the self-cleavage is 0.01.
Take GGCAGAGCUCAACACAGCGUGGUAAAGUGGCUGAGGCUAGUCUGCC: the self-cleavage came to 0.07.
With GGCAGAGCUCAAUACAGAGUGGCAAAGUGGCUGUGGCUAGUCUGCC the figure was 0.06; with GGCAGAGCGCAACACAGCGUGGCAAAGUGGCUCUGGCUAGCCUGCC, 0.01; with GGCAGAGCUCAACACAGCGUGGCUAAGAGGCUGUGGCCAGACUGCC, 0.25.
With GGCAUAGUACAACACAGCGUGGCAAAGUGGCUAUGGCUAGACUGCC, the self-cleavage turned out to be 0.3.
Turning to GGCAGAGCUCAGCGCAGCGUGGCAAAGUGGCUGUGGCUAGACGGCC, the self-cleavage amounted to 0.
As for GGCAGAGCUCAACACAGCGUGGCAAAGUGGGUGUGACUAGACUGAC, the self-cleavage came to 0.02.
With CGCAGAGCUCAACACAGCGCGGCAAAGUGGCUGUGGUUAGGCUGCC the figure was 0.01.
With GGCAGAGCUGAACACAGCGUGGAAAAGUGGCUGUGGCUAGUCUGCC the figure was 0.02; with GGCAGAGCUCAACACAGCGUGGCAAAGUGGCUGUGGCUCUACUUCC, 0.03; with GGCAAAGCUCAGCACAGCGUGGCAAAGGGGCUGUGGCUAGACUGCC, 0.03.
Consider GGCAGAGCUCACCACAGCGUGGCAAAGUUGCUGAUGCUAGACUGCC, for which the self-cleavage came out at 0.03.
To GGCAGACCUUAACACCGCCUGGCAAAGUGGCUGUGGCUAGACUGAC belongs 0.03; to GGCAUAGCUAAACACAGCGUGGCAAACUGGCUGUGGCUAGACUGCC, 0.03.
GGCAGAGCUCAACACACCGAGUCAAAGUGGCUGUGGCUAGACUGCC: the self-cleavage was determined as 2.34.
With GGCAGAGCUGAACACAGCGUGGCAAAAUGGCUGUGGCUCGACUGCA the figure was 0.04; with GAGAGAGCUCAACACAGCGUGGCAAAGUGGCCGUGGCUCGACGGCA, 0.93.
For the variant GGCAGAGCUCCACACAGCGUGGCAAAGUGGCUGCGGCUUGACUGCC, the self-cleavage was 0.06.
Turning to GGGAGUGCUCAACACAGCGAUACAGAGUGGCUGUGGCUAGAAUGCC, the self-cleavage turned out to be 0.2.
To GGCAGAGCUCAAUACAGCGUGGCAAAGUGCCUGUGCCUAGACUGCU belongs 0.12; to GGCAGAGCUAAACACAGCGUGGCAAAGUGGCUGUCGCUAGACUGCU, 0.04; to GGCAGAGCUCAACUCAGCGUUGCAAAGUGGCUGUGGCUAGAUUGCC, 0.38.
With GGCAGAGCUCAACACAGCGUGGUAAAGUGGCUGGGGCUACAAUGCC the figure was 0.12; with GGCCGAGCUCAACGCAGCGUGGCAAAGUGGCUGUGGAUAAACUGCC, 0.
With GGCAGAGCUCAACACGGCGUAUCAAAGCGGCUGUGGCUAGACUGCC, the self-cleavage is 0.11.
With GGCAGAGCUCAAUACAGCGUCGCGAAGUGGCUGUGGCUAGACUGUC the figure was 0.07; with GGCAGAGUUCAACACAGCUUGGGAAAGUGGCUGUAGCUAGACCGCC, 0.32.
With GGCAGAGCUCAACACAGCGUGGUCAAGUGGCUGUGGGUAGACUGGC the figure was 0; with GGCAGAGAUCACCACAGCGUGGCAGAGUGGCUGUGGCUAGACUGCC, 0.08; with GGCAGAGUUCAACACAGGGUGGCAAAGUGGCUGUGUCUAGACUGCC, 0.17.
With GGCAGAACUCAACACAGCAUGGCAAAGUGCGUGUGGCUAGACUGCC, the self-cleavage was 0.04.
To GGCAGAGCUCAAGACAGCGUGGCAAAGUGGCUCUGGGUUGACUGCC belongs 0.12; to GGCAGAGCUCAACACAGCUUGGCAAAGUGUCCGUGGCUAGCCUGCC, 0.03; to GUCACAGCUCAAUACAGCGUGGCAAAGUGGCUGUGGCUAGACUGCC, 0.01.
To GCCAGAGCUCAACACAGCGCGGCAAAGUCGCUGUGGCUAGAGUGCC belongs 0.
To UAUAGAGCUCAACACAGCAUGGCAAAGUUGCUGUGGCUAGACUGCC belongs 0.4.
Take GGCAGAGCUCAACACAGCGUGGCAAAAUGGCUGUGGCAAGGCUGCA: the self-cleavage is 0.16.
To GGGAGAGAUCAACACAGCGUAGCAAAGUGGCUGUGACUAGACUACC belongs 0.12; to GGCAGAGCUCAACACAGCGCGGCUAAGUGGCUAUGGCUAGACUGCC, 0.02.
With CGCAGAGCUCAACACAGCGUGGGAAAGUGGCUGUGGCUAGUCUGCC the figure was 0.41.
To GGUAGAGCUCAACACAGCGUGGCGUAGUGGCUGUGGCUAGACUGUC belongs 0.06.
As for GGCAGAACCCAACACAGCGUGGCAAAGUGGCUGUGGCUUGACUGCC, the self-cleavage worked out at 0.07.
To GGCAGAGCUGAACAGAGCGUCGCAAAGUGGCUGUGGCUAGACUGCC belongs 0.02; to GGCAGUGCUCAACACAGCGUGGCAAAGUUGCUGUAGCUAGACUCCC, 0.11.
To GGCAGAGCUCAACACAGCGUGGCAAAUUGGUUGUGGUUACACUGCC belongs 0.07; to GACAGAGCUCAACACAGCAUUGCAAAGUGGCUGUGGCUAGACUGAC, 2.21; to GGCAAAGCUCAACACAGCGUGGCAAUGUGACUGUGGCUAGAGUGCC, 0.12.
With GGCGGAGCUCAACACAGCGUGGCAAAGUGGCUUUGGCAAGACUGCC the figure was 0.15.
GGCAGAGCUCAGCACGGCGUGGCAAAGUGGCUGCGGCUAGACUGCC: the self-cleavage was 0.01.
To CGGAGAGCUCAACACAGCCUGGCAAAGUGGCUGUGGCUAGACUGCC belongs 0.07; to GGAAUAGCUCAACACAGAGUGGCAAAGUGGCUGUGCCUAGACUGCC, 0.05; to GGCAGAGCUCAACACAGCGUGGGAAAGUGCCUGUGGCAAGACUGCC, 0.37.
To GGCAGAGCUCAACACAGCGUUGUAAAGUGGCUGUGGCUAGACUGGC belongs 0.04.
With GUCAGAGCUCAACACAGCGCGUCACAGUGACUGUGGAUAGACUGCC the figure was 0.02.
Regarding GGCAGAGCCCAACACUGCGUGGCAAAGUGGCUGGGGUUAGACUGCC, the self-cleavage was 0.02.
Turning to GACCGAGCUCAACACAGCGUGGCAAAGUGGCUGUUGCUAGACUGCC, the self-cleavage is 1.09.
With GGCAGAGCUCAACACAGCGUGGCAAAGUGGCUGUGGCUAGACUCGG the figure was 0.05; with GGCGGAGCACAACACAGCGUGGCACAGUGGUUGUGGCUAGACUGCC, 0.09; with GCCAGAGCUCAAGACAGCGUGGCAAAGAGGCUGUGGCUAGACUGCC, 0.07.
With GGCAGAGCUCAACACAGCCCGCCAAAGUGGCUGUGGCUAGACUGCC the figure was 0.22; with GGCAGAUCUCAACACAGCGAGGCAAAGUAGCUGUGGCUCGACUGCA, 0.16.
With GGCAGAGGUCAACACAGCAUGGCAAUUCGGCUGUGGCUAGACUGCC the figure was 0.32.
For GGCCGAGCUCAACACAGAGUGUCAAAGUGGCUGUUGCUAGAUUGCC, the self-cleavage was 0.03.
With GGCCGAGCUUAAAACAGCGUGGCAAAGUGGGUGCGUCUAGACUGCC the figure was 0.02.
GGCAGAGCUCAAGACAUCGUGGCAAAGUGGCUGUAGCUAGACUGCC: the self-cleavage worked out at 0.05.
With GGCAGAGCGCUACACAGCGUGGCAAAGUGGCUGUGGCUAAACUGCC the figure was 0.01; with UGGGGAGCUCAACACAGCGUGGCAAAGUCGCUGUGGCGAGACUGCC, 0.01.
In the case of GGCAGAGCUCAACACAGCGUGGCAAAGUCGCUGUGGCUAGUAUGCC, the self-cleavage was found to be 0.
With GGCAGAGCUUAACAAAGCGUGGCAAAGUGGAUAUGGCUAGACUGCC the figure was 0.03; with GGCAGAGCUGAACUCAGCGGGGCAAAGUGGCUAUGGAUAGACUGCC, 0.02; with GGAAGAGCUCAACACAUCGUGGCAAAGUGGCUGUGGCUAGACUACC, 0.1.
With GGCUCAACUCAGCACAGCGUGGCAAAGUGGCUGUGGCUAGACUGCC the figure was 0.28; with GGCAGAUCUCAACACAGCGUGGCAGACUGGCUGUGGAUAGACUGCC, 0.01; with UGCAGGACUCAACAUAGCGUGGCAAAGUGGUUGUGGCUAGAGUGCC, 0.01.
With GGCAGGGCUCGACACAGCCUGGCUAAGUGGCUGUGGCUAGACUGCC the figure was 0; with CGCAGGGCUCAACACAGCGUGGCAAAGUGGUUUUGGUUAGACUGCC, 0.01.
On to GGCAGAGCUCACCACAGGGUGUCAAAUUGACUGUGGCUAGACUGCC, for which the self-cleavage is 0.
With GUCAGAGCUCAACACAGCGUGGCUAAGUGGCUAUCGCUAGAGUGCC the figure was 0.01; with GGUAGAGCUCGAUACAGCGUGGCAUAGUGGCUGUGGCUAGACUGCC, 0.08; with GGCAGAGCUCAACACAACGUGGCAAAGCGGCUGUUGCUGGACUGCC, 0.08.
To GGCAGAGCUGUACACAGCGUGGCACAGUGGCUGUGGCUAGACUGCC belongs 0.01.
To GGAAGAGCUCAACACAGCGUGGCAAAGUGGCUGAGGCUAGACUGAC belongs 0.11.
Turning to GGCAAAGCUAAACACAGCGGGGCAAAGUGGCUGUGGCUAGACUGCC, the self-cleavage stood at 0.02.
To GGCAGAGCUCAACACAGUAUGGCAAAGUGGAUGUGGCUAGAGUGCC belongs 0.02; to GGCAGAUCUUAACACAGCGUGGCAAAGUGGCUUUGGCUAGACUGCC, 0.08.
To GGCAGAGCUCAUCACAGCGUGGCAAAGGUGCUGUGGCUGGCCUGCC belongs 0.02; to GGCAGAGCUCAACACAGCGUGCCAAAUUGGCUGUCGCUAGACUGCC, 0.1.
With GGCAGAGCUCAAAACAGCGUGGCAAAGUGGCUGUGGAUAGACUGCU the figure was 0.
GGCAGCGCUGAACACAGCGUGGCAAAGUGGGUGUGGCUAGAGGGCC: the self-cleavage is 0.
With UGCAGAGCUCAACCCAGCGUGGCAAAGUGACUGUGGCUAUACUGCC the figure was 0.01.
As to GGCAGCGCUCAACACAGAGUGGCAAAGUGGCUGUGGCUGGACUGCC, the self-cleavage was 0.04.
To GACAGAGGUGAACACAGCGUGGCAAAGUUUCGGUGGCUAGAAUGCC belongs 0.03; to GGCAGAGCUCAUCACAGCGUGCCUAAGUGGCUGUGUCUAGACUGCC, 0.06.
